# Laboratory results taken from the supplement of paper PMC8728848.
# The list shows a part of the results.
# Legend:
# Assay in all cases: glycan array binding signal (z-score within array); higher = stronger binding
# Conditions in all cases: glycan notation: IUPAC condensed, linker removed
# [1] = biological target: GlcNAc(b1-4)GlcNAc(b1-4)GlcNAc(b1-4)GlcNAc(b1-4)GlcNAc(b1-4)GlcNAc
# Summary of the method: (§1)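 Glycan array data came from 3228 arrays in the Consortium for Functional Glycomics database, and only arrays with an available protein sequence were kept. Glycan names were put into IUPAC-condensed notation, and columns mapping to the same glycan were averaged. The binding signal is a within-array Z-score, averaged across arrays of one protein sequence run at different concentrations or buffers and across linkers. A negative Z-score can be read as non-binding.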
# [2] = biological target: GlcNAc(b1-4)[GlcNAc(b1-6)]GalNAc
# Summary of the method: as §1
# [3] = biological target: GlcNAc(b1-6)Gal(b1-4)GlcNAc
# Summary of the method: as §1
# [4] = biological target: GlcNAc(b1-6)GalNAc
# Summary of the method: as §1
# [5] = biological target: GlcNAc6S(b1-3)Gal(b1-4)GlcNAc
# Summary of the method: as §1
# [6] = biological target: Kdn(a2-3)Gal(b1-3)GalNAc
# Summary of the method: as §1
# [7] = biological target: Kdn(a2-3)Gal(b1-3)GlcNAc
# Summary of the method: as §1
# [8] = biological target: Kdn(a2-3)Gal(b1-4)Glc
# Summary of the method: as §1
# [9] = biological target: Kdn(a2-3)Gal(b1-4)GlcNAc
# Summary of the method: as §1
# [10] = biological target: Kdn(a2-3)Gal(b1-4)[Fuc(a1-3)]GlcNAc
# Summary of the method: as §1
# [11] = biological target: Kdn(a2-6)Gal(b1-4)GlcNAc
# Summary of the method: as §1
# [12] = biological target: Man(a1-2)Man(a1-2)Man(a1-3)Man
# Summary of the method: as §1
# [13] = biological target: Man(a1-2)Man(a1-2)Man(a1-6)[Man(a1-3)]Man
# Summary of the method: as §1
# [14] = biological target: Man(a1-2)Man(a1-3)Man
# Summary of the method: as §1
# [15] = biological target: Man(a1-2)Man(a1-3)[Man(a1-2)Man(a1-6)]Man
# Summary of the method: as §1
# [16] = biological target: Man(a1-2)Man(a1-3)[Man(a1-2)Man(a1-6)]Man(a1-6)[Man(a1-2)Man(a1-2)Man(a1-3)]Man
# Summary of the method: as §1
# [17] = biological target: Man(a1-2)Man(a1-3)[Man(a1-2)Man(a1-6)]Man(a1-6)[Man(a1-2)Man(a1-2)Man(a1-3)]Man(b1-4)GlcNAc(b1-4)GlcNAc
# Summary of the method: as §1
# [18] = biological target: Man(a1-2)Man(a1-3)[Man(a1-6)]Man(a1-6)[Man(a1-2)Man(a1-3)]Man(b1-4)GlcNAc(b1-4)GlcNAc
# Summary of the method: as §1
# [19] = biological target: Man(a1-2)Man(a1-6)[Man(a1-3)]Man(a1-6)[Man(a1-2)Man(a1-2)Man(a1-3)]Man
# Summary of the method: as §1
# [20] = biological target: Man(a1-2)Man(a1-6)[Man(a1-3)]Man(a1-6)[Man(a1-2)Man(a1-2)Man(a1-3)]Man(b1-4)GlcNAc(b1-4)GlcNAc
# Summary of the method: as §1
# [21] = biological target: Man(a1-3)[Man(a1-6)]Man
# Summary of the method: as §1
# [22] = biological target: Man(a1-3)[Man(a1-6)]Man(a1-6)[Man(a1-2)Man(a1-3)]Man(b1-4)GlcNAc(b1-4)GlcNAc
# Summary of the method: as §1
# [23] = biological target: Man(a1-3)[Man(a1-6)]Man(a1-6)[Man(a1-3)]Man
# Summary of the method: as §1
# [24] = biological target: Man(a1-3)[Man(a1-6)]Man(a1-6)[Man(a1-3)]Man(b1-4)GlcNAc(b1-4)GlcNAc
# Summary of the method: as §1
# [25] = biological target: Man(a1-3)[Man(a1-6)]Man(b1-4)GlcNAc(b1-4)GlcNAc
# Summary of the method: as §1
# [26] = biological target: Man(a1-3)[Man(a1-6)]Man(b1-4)GlcNAc(b1-4)[Fuc(a1-6)]GlcNAc
# Summary of the method: as §1
# [27] = biological target: Man(a1-6)Man
# Summary of the method: as §1
# [28] = biological target: Man(b1-4)GlcNAc
# Summary of the method: as §1
# [29] = biological target: MurNAc(b1-4)GlcNAc
# Summary of the method: as §1
# [30] = biological target: Neu5Ac(a2-3)Gal
# Summary of the method: as §1
# [31] = biological target: Neu5Ac(a2-3)Gal(b1-3)GalNAc
# Summary of the method: as §1
# [32] = biological target: Neu5Ac(a2-3)Gal(b1-3)GalNAc(b1-3)Gal(a1-4)Gal(b1-4)Glc
# Summary of the method: as §1
# [33] = biological target: Neu5Ac(a2-3)Gal(b1-3)GalNAc(b1-4)Gal(b1-4)Glc
# Summary of the method: as §1
# [34] = biological target: Neu5Ac(a2-3)Gal(b1-3)GalNAc(b1-4)[Neu5Ac(a2-3)]Gal(b1-4)Glc
# Summary of the method: as §1
# [35] = biological target: Neu5Ac(a2-3)Gal(b1-3)GalNAc(b1-4)[Neu5Ac(a2-8)Neu5Ac(a2-3)]Gal(b1-4)Glc
# Summary of the method: as §1
# [36] = biological target: Neu5Ac(a2-3)Gal(b1-3)GalNAc6S
# Summary of the method: as §1
# [37] = biological target: Neu5Ac(a2-3)Gal(b1-3)GlcNAc
# Summary of the method: as §1
# [38] = biological target: Neu5Ac(a2-3)Gal(b1-3)GlcNAc(b1-2)Man
# Summary of the method: as §1
# [39] = biological target: Neu5Ac(a2-3)Gal(b1-3)GlcNAc(b1-2)Man(a1-3)[GlcNAc(b1-4)][Neu5Ac(a2-3)Gal(b1-3)GlcNAc(b1-2)Man(a1-6)]Man(b1-4)GlcNAc(b1-4)GlcNAc
# Summary of the method: as §1
# [40] = biological target: Neu5Ac(a2-3)Gal(b1-3)GlcNAc(b1-2)Man(a1-3)[Neu5Ac(a2-3)Gal(b1-3)GlcNAc(b1-2)Man(a1-6)]Man(b1-4)GlcNAc(b1-4)GlcNAc
# Summary of the method: as §1
# [41] = biological target: Neu5Ac(a2-3)Gal(b1-3)GlcNAc(b1-2)[Neu5Ac(a2-3)Gal(b1-3)GlcNAc(b1-4)]Man(a1-6)[Neu5Ac(a2-3)Gal(b1-3)GlcNAc(b1-2)Man(a1-3)]Man(b1-4)GlcNAc(b1-4)GlcNAc
# Summary of the method: as §1
# [42] = biological target: Neu5Ac(a2-3)Gal(b1-3)GlcNAc(b1-3)Gal(b1-3)GlcNAc
# Summary of the method: as §1
# [43] = biological target: Neu5Ac(a2-3)Gal(b1-3)GlcNAc(b1-3)Gal(b1-4)GlcNAc
# Summary of the method: as §1
# [44] = biological target: Neu5Ac(a2-3)Gal(b1-3)GlcNAc(b1-3)GalNAc
# Summary of the method: as §1
# [45] = biological target: Neu5Ac(a2-3)Gal(b1-3)GlcNAc(b1-6)GalNAc
# Summary of the method: as §1
binder,measurement,setting,value
OGAA (protein) MVQKESQATLEERESELSSNPAASAGASLEPPAAPAPGEDNPAGAGGAAVAGAAGGARRFLCGVVEGFYGRPWVMEQRKELFRRLQKWELNTYLYAPKDDYKHRMFWREMYSVEEAEQLMTLISAAREYEIEFIYAISPGLDITFSNPKEVSTLKRKLDQVSQFGCRSFALLFADIDHNMCAADKEVFSSFAHAQVSITNEIYQYLGEPETFLFCPTEYCGTFCYPNVSQSPYLRTVGEKLLPGIEVLWTGPKVVSKEIPVESIEEVSKIIKRAPVIWDNIHANDYDQKRLFLGPYKGRSTELIPRLKGVLTNPNCEFEANYVAIHTLATWYKSNMNGVRKDVVMTDSEDSTVSIQIKLENEGSDEDIETDVLYSPQMALKLALTEWLQEFGVPHQY,glycan array binding signal (z-score),[1],-0.102
same,glycan array binding signal (z-score),[2],-0.031
same,glycan array binding signal (z-score),[3],-0.095
same,glycan array binding signal (z-score),[4],-0.125
same,glycan array binding signal (z-score),[5],-0.111
same,glycan array binding signal (z-score),[6],-0.093
same,glycan array binding signal (z-score),[7],-0.06
same,glycan array binding signal (z-score),[8],-0.095
same,glycan array binding signal (z-score),[9],-0.092
same,glycan array binding signal (z-score),[10],-0.025
same,glycan array binding signal (z-score),[11],-0.043
same,glycan array binding signal (z-score),[12],0.042
same,glycan array binding signal (z-score),[13],-0.131
same,glycan array binding signal (z-score),[14],-0.028
same,glycan array binding signal (z-score),[15],-0.114
same,glycan array binding signal (z-score),[16],-0.028
same,glycan array binding signal (z-score),[17],-0.113
same,glycan array binding signal (z-score),[18],-0.128
same,glycan array binding signal (z-score),[19],-0.114
same,glycan array binding signal (z-score),[20],0
same,glycan array binding signal (z-score),[21],-0.104
same,glycan array binding signal (z-score),[22],-0.14
same,glycan array binding signal (z-score),[23],-0.025
same,glycan array binding signal (z-score),[24],-0.102
same,glycan array binding signal (z-score),[25],-0.09
same,glycan array binding signal (z-score),[26],0.002
same,glycan array binding signal (z-score),[27],-0.126
same,glycan array binding signal (z-score),[28],-0.088
same,glycan array binding signal (z-score),[29],-0.084
same,glycan array binding signal (z-score),[30],-0.09
same,glycan array binding signal (z-score),[31],-0.062
same,glycan array binding signal (z-score),[32],-0.079
same,glycan array binding signal (z-score),[33],-0.067
same,glycan array binding signal (z-score),[34],-0.083
same,glycan array binding signal (z-score),[35],-0.097
same,glycan array binding signal (z-score),[36],-0.051
same,glycan array binding signal (z-score),[37],-0.078
same,glycan array binding signal (z-score),[38],-0.107
same,glycan array binding signal (z-score),[39],-0.067
same,glycan array binding signal (z-score),[40],0.181
same,glycan array binding signal (z-score),[41],0.068
same,glycan array binding signal (z-score),[42],-0.013
same,glycan array binding signal (z-score),[43],-0.111
same,glycan array binding signal (z-score),[44],-0.094
same,glycan array binding signal (z-score),[45],-0.047
